Experimental data from PubChem BioAssay AID2675 (National Center for Advancing Translational Sciences (NCATS), 2010).
Out of some 280,000 compounds screened, about 100 (0.036%) were called active. The shares of active, inactive and inconclusive entries below differ from those in the screen. The call rests on the fitted dose curve; in most records, active means well fitted inhibition curve with a large enough effect in the signal ratio, with a control signal flat (not every such curve was filed as active); inconclusive means small, poorly fitted or top-dose-only effect, or effect the other way, or a change in a side signal; inactive means no such curve, though single readings can be large or run the other way; the % refers to the signal ratio. A potency beside an inconclusive call is a rough fit, not a confirmed value. A note “side channel” means that the fit belongs to a control or component signal, not to the main read-out.
Potency means the concentration at half of the fitted maximal effect; tags describe the fitted curve by direction and shape or compound fluorescence and quenching.

The molecules below were run against Muscleblind-like protein 1 (Homo sapiens) (UniProt Q9NR56) (assay: qHTS Assay for Inhibitors of MBNL1-poly(CUG) RNA binding). Conditions: TR-FRET MBNL1-His/biotin-(CUG)12 binding, 665/545 ratio; series mostly up to 57.5 µM.
Sequence of UniProt Q9NR56 (Q9NR56 whole entry, looked up): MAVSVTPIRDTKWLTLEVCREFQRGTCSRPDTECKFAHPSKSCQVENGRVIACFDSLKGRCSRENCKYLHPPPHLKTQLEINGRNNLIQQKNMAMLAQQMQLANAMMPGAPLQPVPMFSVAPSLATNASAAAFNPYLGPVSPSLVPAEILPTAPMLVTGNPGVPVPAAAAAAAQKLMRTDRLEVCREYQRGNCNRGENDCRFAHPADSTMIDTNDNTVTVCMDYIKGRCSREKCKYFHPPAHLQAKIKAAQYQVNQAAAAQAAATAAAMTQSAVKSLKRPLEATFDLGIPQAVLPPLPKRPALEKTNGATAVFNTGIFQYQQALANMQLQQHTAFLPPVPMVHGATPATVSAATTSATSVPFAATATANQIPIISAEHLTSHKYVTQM
Summary of the method: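 Ratiometric TR-FRET (665 over 545 nm, excitation 340 nm) tracks disruption of MBNL1-His/biotin-(CUG)12 complex after 60 min at room temperature, with compounds at 92 nM to 58 uM final.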
In the case of `Cc1noc(/C=C/c2ccccn2)c1[N+](=O)[O-]`, the Potency was inconclusive: 12.6 µM [quencher, side channel, partial curve].
With `COc1cccc(OC)c1C(=O)Nc1cccc(-c2ccc3nncn3n2)c1` the Potency was inconclusive: 31.6 µM [quencher, side channel, single point].
`O=c1c(-c2ccccc2)c[nH]n1-c1cccc([N+](=O)[O-])c1` was tested, and the Potency was inconclusive: 28.2 µM [quencher, side channel, single point].
`Cc1oc(-c2ccccc2F)nc1CN1CCC(C(=O)NCc2cccs2)CC1` was tested, and the Potency was “inactive”.
In the case of `O=C(CNCC1CCCO1)Nc1ccc([N+](=O)[O-])cc1C(=O)Nc1ccccc1F` (centres undefined), the Potency was inconclusive: 12.6 µM [quencher, side channel, partial curve].
In the case of `O=C(N/N=C/c1ccc2c(c1)OCO2)c1ccc(NC(=O)c2ccc(F)cc2)cc1`, the Potency was “inactive”.
In the case of `Cc1ccc(NC(=O)/C=C/c2ccc([N+](=O)[O-])s2)c(C)c1`, the Potency was inconclusive: 31.6 µM [quencher, side channel, partial curve, poor fit].
For `Cc1ccc(C)c(-c2ccc(=O)n(Cc3c(F)cccc3Cl)n2)c1`, the Potency was “inactive”.
In the case of `O=C(COc1ccc(/C=N/NC(=O)c2ccncc2)cc1)Nc1cccc([N+](=O)[O-])c1`, the Potency was inconclusive: 17.8 µM [quencher, side channel, partial curve].
`CCOC(=O)C1CCN(C(=O)CNC(=O)c2nn(-c3ccc(OC)c(Cl)c3)c(=O)c3ccccc23)CC1` was tested, and the Potency was inconclusive: 31.6 µM [quencher, side channel, partial curve, poor fit].
`O=C(N/C(=C\c1ccc([N+](=O)[O-])cc1)C(=O)N1CCCCC1)c1ccco1` was tested, and the Potency was inconclusive: 14.1 µM [quencher, side channel, partial curve].
In the case of `COc1ccc(/C=C(\C#N)C(=O)OC2CCOC2=O)cc1` (centres undefined), the Potency was inconclusive: 28.2 µM [quencher, side channel, partial curve].
For `CC(C)Cn1c(-c2cccs2)nc2nc3ccccc3nc21`, the Potency was inconclusive: 20 µM [quencher, side channel, partial curve].
For `O=C(NNC(=O)c1ccco1)c1ccccc1`, the Potency was inconclusive: 0.251 µM [fluorescent, side channel, partial curve].
In the case of `O=C1NC(=Nc2ccccc2Cl)S/C1=C\c1cccc([N+](=O)[O-])c1O`, the Potency was inconclusive: 22.4 µM [quencher, side channel, partial curve].
In the case of `Cn1c(-c2ccc3c(c2)OCO3)cnc1N`, the Potency was “inactive”.
In the case of `O=C(Cn1nc(-c2cccc([N+](=O)[O-])c2)c2ccccc2c1=O)Nc1cccnc1`, the Potency was inconclusive: 25.1 µM [quencher, side channel, partial curve].
`O=C1S/C(=C\C=C\c2ccco2)C(=O)N1c1ccccc1` was tested, and the Potency was inconclusive: 0.158 µM [quencher, side channel, full curve, poor fit].
With `O=C1C(=O)N(CCCc2ccccc2)c2ccccc21` the Potency was inconclusive: 25.1 µM [quencher, side channel, partial curve].
`CCCCn1c(N)c(N(CCOC)C(=O)c2ccc(-c3ccc([N+](=O)[O-])cc3)o2)c(=O)[nH]c1=O` was tested, and the Potency was inconclusive: 14.1 µM [quencher, side channel, partial curve].
For `O=c1oc2cc([N+](=O)[O-])ccc2nc1/C=C(\O)c1cccc(Br)c1`, the Potency was inconclusive: 28.2 µM [quencher, single point].
In the case of `CCOc1cc(CNc2ccc3cn[nH]c3c2)ccc1OC`, the Potency was inconclusive: 31.6 µM [quencher, side channel, single point].
For `c1cncc(-c2nc(-c3ccc4c(c3)OCCO4)cs2)c1`, the Potency was inconclusive: 20 µM [quencher, side channel, partial curve].
With `COc1ccc(C2=NN(C(=O)CCC(=O)O)C(c3ccc(OC)cc3)C2)cc1` (centres undefined) the Potency was “inactive”.
In the case of `CCN(CC(=O)NC1CCS(=O)(=O)C1)S(=O)(=O)c1ccc2ccccc2c1` (centres undefined), the Potency was “inactive”.
`Cc1ccc(C)c2nc3sc(C(=O)O)cc3cc12` was tested, and the Potency was inconclusive: 28.2 µM [quencher, single point].
`CC(C)(C)c1cc(N/C=C\c2nnnn2-c2ccc(Br)cc2)no1` was tested, and the Potency was inconclusive: 39.8 µM [inhibitor, single point].
`CCC(=O)Nc1ccc(C(=O)N/N=C/c2ccc([N+](=O)[O-])cc2)cc1` was tested, and the Potency was inconclusive: 0.708 µM [quencher, side channel, partial curve].
With `O=C1C=C(Nc2cccc3cccnc23)c2ccccc2C1=O` the Potency was inconclusive: 14.1 µM [quencher, side channel, partial curve].
For `CCN1/C(=C\C=C(C(C)=O)C(C)=O)Sc2ccccc21`, the Potency was inconclusive: 12.6 µM [quencher, side channel, partial curve].
`CSc1nnc(NC(=O)c2ccc(S(=O)(=O)N3CCOCC3)cc2)s1` was tested, and the Potency was “inactive”.
In the case of `Cc1ccc(NCc2ccc(O)c3ncccc23)cc1C`, the Potency was “inactive”.
`CC(C)(C)c1csc(Sc2ncccc2[N+](=O)[O-])n1` was tested, and the Potency was inconclusive: 15.8 µM [quencher, side channel, partial curve].
In the case of `c1ccc(C[n+]2c(-c3ccccc3)csc2Nc2ccccc2)cc1`, the Potency was inconclusive: 0.112 µM [fluorescent, side channel, partial curve].
`Cc1cc2oc(=O)cc(Cn3ncc(Cl)c(Cl)c3=O)c2cc1Cl` was tested, and the Potency was “inactive”.
In the case of `O=C(Nc1ccc(N2CCOCC2)cc1N1CCOCC1)c1ccco1`, the Potency was “inactive”.
For `COc1ccc(C2CC(c3cccs3)=NN2C(=O)CSc2nncs2)cc1OC` (centres undefined), the Potency was inconclusive: 31.6 µM [quencher, side channel, single point].
For `COc1ccc(Nc2cc3n(c(=O)n2)CCc2cc(OC)c(OC)cc2-3)cc1`, the Potency was inconclusive: 15.8 µM [quencher, side channel, partial curve].
`O=C1C(Nc2ccccc2)=C/C(=N/S(=O)(=O)c2cccs2)c2ccccc21` was tested, and the Potency was inconclusive: 7.08 µM [quencher, side channel, partial curve].
